In PubChem BioAssay AID2016 (NMMLSC, 2009):
About 1,700 (0.52%) of roughly 330,000 compounds were called active.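 Rule for the calls: active = GFP response versus DMSO above a set limit, roughly screen mean plus 3 SD (cut at about 180% in these data); inconclusive = fewer than 70 cells counted for a yeast strain; inactive = the rest.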 Some compounds were tested as several samples or in several runs, with calls that do not always agree. Some entries of the source have several records that differ or are many. Only these are listed. An entry can have further records. Values that stand side by side repeat one measurement in other runs, samples, wells, individuals or studies. Brackets tell where a record comes from. A, B and so on number the origins entry by entry.

assay: TOR pathway GLN3 branch reporter MEP2-GFP changes – S. cerevisiae, multiplex flow cytometry, MLPCN library, primary screen (AID 2016);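 note: median GFP fluorescence of the barcode-gated MEP2-GFP cells per well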; conditions: S. cerevisiae MEP2-GFP strain, 3 h, at 10 µM, stronger effect = higher value, 100% = DMSO control level

SMILES | GFP response vs DMSO
O=C(Cn1c[n+](CC(=O)c2ccc([N+](=O)[O-])cc2)cn1)c1ccc([N+](=O)[O-])cc1 | inactive: 90.3% [sample A] and active: 222% [may fluoresce violet] [sample B]
